Hit rate of the full screen: of about 340,000 compounds, about 6,900 (2%) were called active. Cut-off read from the data, not from the text of the source: active = inhibition above about 30%; inactive = below that, where a call was filed. The entries are a selection whose mix differs from that of the whole data set. The source gives no active or inactive call for entries shown without one.

UniProt P14416, sequence (P14416 whole entry, looked up): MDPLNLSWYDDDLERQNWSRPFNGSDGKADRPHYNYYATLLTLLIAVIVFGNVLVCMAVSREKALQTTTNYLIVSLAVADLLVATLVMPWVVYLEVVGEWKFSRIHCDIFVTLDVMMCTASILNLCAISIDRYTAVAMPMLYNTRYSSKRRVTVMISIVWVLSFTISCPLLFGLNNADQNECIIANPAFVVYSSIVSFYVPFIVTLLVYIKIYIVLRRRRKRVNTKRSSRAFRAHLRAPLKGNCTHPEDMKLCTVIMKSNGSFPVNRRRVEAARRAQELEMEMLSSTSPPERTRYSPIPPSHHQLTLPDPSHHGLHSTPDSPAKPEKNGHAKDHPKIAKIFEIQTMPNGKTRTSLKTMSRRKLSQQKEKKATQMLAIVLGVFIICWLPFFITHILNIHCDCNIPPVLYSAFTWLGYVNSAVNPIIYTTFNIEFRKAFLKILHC

The target in the assay is D(2) dopamine receptor (Homo sapiens) (UniProt P14416). Kind of assay: HTS Assay for Allosteric Antagonists of the Human D2 Dopamine Receptor: Primary Screen for Antagonists. Note: 0% is about no effect. The note with it: HEK293 TREx D2 cells, calcium flux, dopamine EC80; at 10 µM; stronger effect = higher value. An outline of the steps:
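Antagonism is scored as inhibition of an EC80 dopamine-evoked calcium signal in a force-coupled, tetracycline-inducible HEK293 T-REx D2 line, with compound present 180 s before agonist.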
A general note: Calcium assays in cells follow changes in intracellular calcium, usually with a dye or a luminescent sensor.
As usually defined, the inhibition is the drop in the measured response relative to a control, in per cent. As to `CCN1CCN(CCCNC(=O)c2cnn(-c3ccccc3)c2C2CCN(C(=O)OC(C)(C)C)CC2)CC1`, the inhibition came to 14.8%.
Take `COc1cccc(C2C=C(c3ccc(C)c(C)c3)Nc3nnnn32)c1OC` (stereo not drawn): the inhibition came out at 0.618%.
As to `Cc1ccc(-c2c(CN3CCN(c4cccc(C(F)(F)F)c4)CC3)csc2C)cc1`, the inhibition amounted to 24.5%.
`O=C(NCCc1csc2nc(-c3ccccc3F)nn12)c1ccco1`: the inhibition is -11.8%.
The value for `O=C(NC(=O)c1ccc(F)cc1)Nc1ccc(-c2cc(C(F)(F)F)nn2-c2ccccc2)cc1` was -25.7%; that for `CN1C(C(=O)c2ccccc2)=C(OC(=O)c2ccc(Br)cc2)c2ccccc2S1(=O)=O` was -10.3%; that for `Cc1oc2c(c(C)cc3oc(=O)c(CC(=O)NCCc4ccccc4)c(C)c32)c1C` was 10.3%.
Consider `COc1ccc(NC(=O)c2cc3c(=O)n(Cc4ccco4)ccc3nc2C)cc1`, for which the inhibition was -3.33%.
For `Cc1ccc(NC(=O)Nc2ccc3c(c2)N(C)C(=O)c2ccccc2S3)c(C)c1`, the inhibition is -2.5%.
As for `CCOC(=O)c1c(C)[nH]c(C)c1S(=O)(=O)NCC(=O)Nc1cc(C)ccc1OC`, the figure is -7.22%; as for `COc1ccccc1NC(=O)c1c(NCc2ccc(OC)c(OC)c2OC)sc2c1CCCC2`, -1.6%; as for `COc1cccc(NC(=O)Nc2cccc(-c3cn4cccnc4n3)c2)c1`, -2.27%.
The value for `CC1CCC2(CC1)NC(=O)N(CC(=O)Nc1sc3c(c1C(N)=O)CCC3)C2=O` (stereo not drawn) was active: 38.5%; that for `O=C(NCCc1ccccc1)c1cc(-c2ccc(Cl)cc2)on1` was -6.46%.
As for `COc1ccc(NC(=O)c2noc3c2CCCC3)cc1Cl`, the figure is 13.6%; as for `CCOc1ccc(-c2nnc(Nc3ccc(S(N)(=O)=O)cc3)c3ccccc23)cc1`, -11.8%; as for `CC(C)(C)c1ccc(OCC(=O)N2CCC(c3nc4ccccc4s3)CC2)cc1`, -6.5%.
Consider `Cc1cc(C)c(NC(=O)CSc2nc(=O)[nH]c3c2CCCC3)c(C)c1`, for which the inhibition worked out at 21.1%.
As for `CCCOC1(C(F)(F)F)NC(=O)N(c2ccc(Cl)cc2)C1=O` (stereo not drawn), the figure is 21%; as for `Cc1nc2c(C(=O)NCc3ccccc3)c[nH]n2c(=O)c1Cc1ccccc1Cl`, -25.3%; as for `Cc1sc2ncn(CC(=O)N(C)c3ccc(Br)cc3)c(=O)c2c1S(=O)(=O)N1CCC(C)CC1`, 2.76%.
As for `COc1ccc(N(CC(=O)N/N=C/c2cccc3c2OCCO3)S(=O)(=O)c2ccc(NC(C)=O)cc2)cc1`, the figure is active: 44.5%; as for `Cc1cccc2cc(C#N)c(SCC(=O)N3CC(=O)Nc4ccccc43)nc12`, active: 33.6%.
The value for `Cc1cccc(NC(=O)c2c(C)oc3ncn(CC(C)C)c(=O)c23)n1` was 3.11%.
Regarding `CC(=O)N1CCc2cc(S(=O)(=O)CCC(=O)N3CCN(c4cccc(C)c4C)CC3)ccc21`, the inhibition is 7.12%.
The value for `Cc1ccc(-n2ncc(C(=O)NCc3ccco3)c2C2CCN(C(=O)OC(C)(C)C)CC2)c(C)c1` was -8.17%.
On to `CC(=O)c1ccc(N2C(=O)N(CC(=O)c3ccc(F)cc3)c3ccccc3S2(=O)=O)cc1`, for which the inhibition was determined as 4.81%.
As for `Cc1ccc(-n2ncc3c(NC4CCCCCC4)ncnc32)cc1Cl`, the figure is 7.42%; as for `CCCCN(CCCNC(=O)c1cc(Nc2ccc(OC)c(OC)c2)nc2ccccc12)Cc1ccccc1`, -1.48%.
As for `COc1ccc(S(=O)(=O)NCCc2csc(-c3ccc(F)cc3)n2)cc1F`, the inhibition is -15.1%.
As for `CCOC(=O)C1=C(C)N=C2SCCC(=O)N2C1c1ccc(OCc2ccccc2)cc1` (stereo not drawn), the figure is -1.54%; as for `COC(=O)c1c(NC(=O)CCCOc2cccc(C)c2)sc2c1C(C(=O)OC)CC2` (stereo not drawn), -5.58%; as for `Cn1c(CN2CCCC2)c(C#N)c2ccccc21`, active: 82.8%.
The value for `CCN(CC)C(=O)Cn1c(=O)n(Cc2ccc(C(=O)NCCc3ccc(OC)c(OC)c3)cc2)c(=O)c2ccccc21` was -11%; that for `CCc1ccc(CN(Cc2cn[nH]c2-c2ccc(OC)cc2)C(=O)Nc2cc(Cl)ccc2OC)cc1` was 0.155%.
`CCOC(=O)c1c(NC(=O)c2ccc(S(=O)(=O)N(CC(C)C)CC(C)C)cc2)sc2c1CCN(C(=O)OCC)C2`: the inhibition is -7.42%.
Take `CCC(=O)N(CCC(c1ccccc1)c1ccc2c(c1)OCO2)Cc1ccc(OC(C)C)cc1` (stereo not drawn): the inhibition was found to be 6.34%.
In the case of `COc1ccc(NC(=O)CSc2nnc(-c3nonc3NC(C)=O)n2-c2ccccc2)cc1`, the inhibition amounted to 4.27%.
As for `COc1ccc(Cl)cc1NC(=O)c1sc2nc3n(c(=O)c2c1C)CCC3`, the figure is 13.1%; as for `CCCN(C(=O)Cn1cnc2onc(-c3ccc(F)cc3)c2c1=O)c1cccc(Cl)c1`, -2.39%.
On to `Cc1cc(C)n(-c2nc3ccccc3nc2Nc2cccc(C)c2C)n1`, for which the inhibition was -12.8%.
As for `CCOc1ccc(CCNS(=O)(=O)c2cc(Br)cc3c2N(C(C)=O)CC3)cc1OCC`, the figure is -8.2%; as for `CN(CCC(=O)Nc1ccc(Cl)cc1)Cc1ccccc1`, active: 45.2%; as for `CCC(Sc1nc2ccccc2c(=O)n1CCc1ccc(OC)c(OC)c1)C(=O)N(CC)CC` (stereo not drawn), 21.5%.
With `O=C(Nc1ccc(OC(F)(F)F)cc1)c1cc2ccccn2n1`, the inhibition is -3.39%.
On to `O=c1nc2n(-c3ccccc3F)c3ccccc3cc-2c(=O)[nH]1`, for which the inhibition is 0.145%.
Turning to `COc1cc(OC)c(Nc2nc3ccc(C(=O)c4ccccc4)cc3n3c(C)nnc23)cc1Cl`, the inhibition is -1.02%.
As for `CC(C)CCN1CCN(Cc2cccc(C(F)(F)F)c2)CC1CCO` (stereo not drawn), the figure is active: 76.4%.
As to `CCCCn1cc2c(c1-c1ccc(Cl)cc1)c(=O)n(C)c(=O)n2C`, the inhibition is 25.4%.
With `Cc1cc(C)cc(NS(=O)(=O)c2cc3c(cc2C)NC(=O)CO3)c1`, the inhibition is 22.1%.
As for `CS(=O)(=O)N(CC(O)Cn1c2ccccc2c2ccccc21)c1cccc2ccccc12` (stereo not drawn), the figure is active: 31.2%.
In the case of `Clc1ccc(-c2noc3ncnc(NCCc4ccccc4)c23)cc1`, the inhibition was -24.9%.
Take `CCc1ccc(NC(=O)C2CCN(c3nn4c(=O)cc(C)nc4s3)CC2)cc1`: the inhibition was determined as 13.7%.
As for `O=C(Nc1ccc2c(c1)CCCN2C(=O)c1cccs1)c1ccccc1Cl`, the figure is 12%; as for `COc1ccc(Cl)cc1NC(=O)c1nn(-c2ccc(C)cc2)c(=O)n(C)c1=O`, -11.4%.
As for `CCOC(=O)c1c(C)[nH]c(C)c1S(=O)(=O)N1CCCC(C(=O)N2CCN(c3cccc(C)c3C)CC2)C1` (stereo not drawn), the figure is 3.35%; as for `Cc1cccc(CNC(=O)CS(=O)(=O)c2cccc3nsnc23)c1`, 20.1%; as for `COc1cc(NC(=O)Cn2cnc(S(=O)(=O)N3CCCC3)c2)cc(OC)c1OC`, 1.25%.
As for `CN1/C(=C/C=N/NC(=O)c2ccc([N+](=O)[O-])cc2)C(C)(C)c2ccccc21`, the figure is active: 36.7%; as for `COCCNC(=O)c1cnc2sc(N3CCC(C)CC3)nn2c1=O`, -8.89%.
As for `CCOC(=O)C1CCN(C(c2cccc(F)c2)c2c(O)cc(C)n(CCOC)c2=O)CC1` (stereo not drawn), the inhibition stood at 6.41%.
In the case of `CCN(C(=O)c1cnc2ccc(C)cn2c1=O)c1ccccc1`, the inhibition amounted to 5.35%.
The value for `CCOC(=O)c1c(C)c(-c2ccccc2)n(CC(=O)NC2CCCCC2)c1C` was 5.13%.
For the compound `O=C(Cn1c(=O)nc(-c2ccccc2)c2cc(Cl)ccc21)N1CCN(c2ccc(F)cc2)CC1`, the inhibition was determined as 9.71%.
As for `Cc1cccc(-c2nnc(C3CCN(S(=O)(=O)c4cccc(Cl)c4)CC3)o2)c1`, the figure is 7.65%.
For `CCOc1cc2[nH]c(=O)n(Cc3ccc(C(=O)N4CCN(c5cccc(Cl)c5)CC4)cc3)c(=O)c2cc1OCC`, the inhibition was determined as 15.7%.
As for `COc1cc(C2NC(=O)c3c(sc4c3CCN(C)C4)N2)cc(OC)c1OC` (stereo not drawn), the figure is 20.5%; as for `CC(=O)CSc1nnc2[nH]c(=O)cc(N)n12`, 2.81%.
The value for `Cn1nc(C(=O)Nc2ccc(F)c(Cl)c2)c2c1-c1ccccc1S(=O)(=O)C2` was 2.6%.
In the case of `CCc1ccc(CNC(=O)C2CCN(c3nn4cc(-c5ccc(F)cc5)nc4s3)CC2)cc1`, the inhibition was -3.09%.
On to `Cc1nn(-c2ccccc2)c(C)c1NC(=O)COC(=O)[C@@H](NC(=O)c1ccccc1)C(C)C`, for which the inhibition was active: 35.9%.
As for `CCOC(=O)c1c(C)[nH]c(C)c1S(=O)(=O)N(C)CC(=O)Nc1ccc(C)cc1C`, the figure is 1.81%; as for `Cc1ccccc1NC(=O)Cc1nc(COC(=O)CNS(=O)(=O)c2cccc(Br)c2)cs1`, active: 34.8%; as for `Cc1cc(C)c2oc(-c3cccc(NC(=O)COc4ccc([N+](=O)[O-])cc4)c3)nc2c1`, 15.2%.
In the case of `Cc1ccc(NC(=O)Cn2c(=O)n(CC3CCCO3)c(=O)c3ccccc32)cc1` (stereo not drawn), the inhibition is -3.21%.
The value for `Cc1ccc(Cl)cc1N1CCN(C(=O)c2ccc(CS(=O)(=O)c3ccccc3C)o2)CC1` was -18.7%; that for `COc1cc(C2CC(=O)Oc3c2c(=O)n(C)c2ccccc32)ccc1O` (stereo not drawn) was 13.9%.
In the case of `COc1ccc(C(=O)NC2(C(F)(F)F)C(=O)Nc3c2c(=O)[nH]c(=O)n3CCc2ccc(OC)c(OC)c2)cc1` (stereo not drawn), the inhibition is -3.23%.
With `CCOC(=O)C1CCN(S(=O)(=O)c2ccc3c(c2)N(C)C(=O)CC(=O)N3C)CC1`, the inhibition is -18.5%.
Turning to `COc1ccc(-c2cc(C(C)=O)c(C)n2CCC(=O)Nc2cc(Cl)ccc2C)cc1`, the inhibition was -17.8%.
For `Clc1cccc(CN2CCN(c3nc4nonc4nc3NC3CC3)CC2)c1`, the inhibition is active: 37.7%.
Turning to `CCCCN(C(=O)C1CC(=O)N(c2ccc(C)cc2)C1)c1c(N)n(CCC)c(=O)[nH]c1=O` (stereo not drawn), the inhibition was active: 37.9%.
The value for `Cc1ccccc1CN1CCC(CNC(=O)c2c(C)oc3ncnc(N4CCCCC4)c23)CC1` was -7.42%.
As for `CCOc1ccc(CCNC(=O)C2=C(C)C(=O)OC23CCCCC3)cc1`, the figure is 1.1%; as for `CCC(Sc1nc(-c2ccccc2F)nc2c1Cc1c(CO)cnc(C)c1O2)C(=O)Nc1cc(C)ccc1C` (stereo not drawn), 18.9%.
Turning to `O=C(CCn1c(=O)c2cccn2c2cccnc21)NCc1ccc(F)cc1`, the inhibition stood at 8.73%.
As for `Fc1ccc(-c2noc3ncnc(NCc4ccc(Cl)cc4)c23)cc1`, the figure is -10.7%; as for `CN(Cc1ccccc1)C(=O)c1ccc2c(c1)N(Cc1ccccc1Cl)C(=O)c1ccccc1S2`, -9.49%; as for `CCc1ccccc1NC(=O)c1cnc(N2CCCCC2)c2ccccc12`, 23.6%.
`Cc1cc(=O)n(CC(=O)N2CCN(c3ccccc3F)CC2)c2c1c(C)nn2C`: the inhibition is -1.79%.
As for `COc1cc(C(=O)NCC(c2cccs2)S(=O)(=O)c2cccs2)cc(OC)c1OC` (stereo not drawn), the figure is 1.43%.
The value for `COc1ccc(-c2c3c(=O)n(C)c(=O)n(C)c3c3n2-c2ccccc2NC3c2ccco2)cc1` (stereo not drawn) was -9.6%.
As for `CCOc1ccc(CCNC(=O)Cn2nc(CC)n3c(cc4ccccc43)c2=O)cc1`, the figure is -6.8%.

(Values after PubChem BioAssay AID485344 (National Center for Advancing Translational Sciences (NCATS), 2010).)
